Laboratory results taken from PubChem BioAssay AID938 (National Center for Advancing Translational Sciences (NCATS), 2007).
Several values for one entry are separate records, joined by “and”; a condition that tells them apart may be missing. Equal entries are not always repeated. Out of some 73,000 compounds screened, about 1,800 (2.5%) were called active. Inconclusive results, whose numbers are uncertain, are shown with a selection of clear calls. Calls follow the shape of the dose curve; as a rule, active = well fitted activation curve with a large enough effect; inconclusive = small, poorly fitted or top-dose-only effect; inactive = no such curve, though single readings can be large or run the other way. No potency is given beside an inconclusive call; the fits are too rough.

Assay: qHTS Assay for Agonists of the Thyroid Stimulating Hormone Receptor: Activators of Intracellular cAMP Concentrations in Parental HEK 293; also: nearly all actives have a fitted effect of over 55% in size; as to activation: % of control where 0% means no effect
Conditions: parental HEK293 CNG cAMP sensor, membrane potential fluorescence; activation: at 57.1 µM (top of the series) unless noted
Outline: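 Parental HEK 293 cells stably expressing a modified CNG channel (no TSHR) report cAMP rise as membrane depolarization. Membrane potential dye with 100 uM RO 20-1724 was loaded for 60 min at room temperature, then compound added for 30 min; fluorescence read at 590 nm.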
Potency is read from the fitted curve at half-maximal effect; tags tell the direction and shape of the fitted curve.

Compound | Potency | activation
CCOC(=O)c1ccccc1NC(=O)COC(=O)c1ccc(C)c(S(=O)(=O)N2CCOCC2)c1 | inconclusive [activator, partial curve] | 
COc1ccc(CNC(=O)COC(=O)c2ccc3c(c2)OCCO3)cc1 |  | inactive: 16.5%
O=C(Nc1cccc(Cl)c1N1CCCC1)c1cc2ccccc2o1 | active: 25.1 µM | 
CC1(C)CCC=[N+]1[O-] | inconclusive [activator, partial curve] | 
CC(=O)OC(C)=O | inconclusive [activator, single point] | 
CCc1ccc(-c2nc(CSCC(=O)N3CCN(c4ccccn4)CC3)c(C)o2)cc1 | inconclusive [activator, single point] | 
CCC(=O)N(Cc1cc2cc(OC)ccc2[nH]c1=O)c1ccccc1C | inconclusive [activator, single point] | 
Cc1ccc(SCc2[nH]nc3c2C(c2ccco2)C(C#N)=C(N)O3)cc1 (configuration not stated) | inconclusive [activator, single point] | 
C=CCNC(=O)CN1CCC(O)(c2ccc(F)cc2)CC1 | inconclusive [activator, partial curve] | 
Cc1ccccc1-c1cncnc1Nc1ccc(F)cc1 |  | inactive: 15.4%
COc1ccc(-c2noc(CSc3nc4ccccc4c(=O)n3-c3ccccc3)n2)cc1 |  | inactive: 22.4%
C/C=C/Cn1c(SC)nc2c1c(=O)[nH]c(=O)n2C |  | inactive: 19.8%
O=C(NC1CCCCCCC1)C1CCN(c2nc3ccccc3o2)CC1 | inconclusive [activator, partial curve] | 
COc1ccc(Cn2nnnc2C(c2cc3ccc(OC)cc3[nH]c2=O)N2CCCCCC2)cc1 (configuration not stated) | inconclusive [activator, partial curve] | 
CC(=O)Nc1c(C(=O)c2ccccc2)oc2ccccc12 | inconclusive [activator, single point] | 
COc1ccc(C(C)(C)C)cc1NC(=O)c1c(C)noc1C | inconclusive [activator, single point] | 
CS(=O)(=O)N1CCC2(CCN(c3ccncc3)CC2)CC1 | inconclusive [activator, single point] | 
CN1CCN(S(=O)(=O)c2ccc(N(C)Cc3cccs3)nc2)CC1 |  | inactive: -1.25%
CCCCCOc1ccc(CN2CCOCC2)cc1Cl | inconclusive [activator, partial curve] | 
Cc1sc(NC(=O)CSc2nnc(-c3ccc(F)cc3)o2)c(C#N)c1C | inconclusive [activator, single point] | 
Cn1c(=O)c2[nH]c(/N=N\N3CCN(CCO)CC3)nc2n(C)c1=O |  | inactive: 2.89% [at 11.4 µM]
CC(=O)c1ccc(C(C)(C)c2ccc(C(C)=O)s2)s1 | inconclusive [activator, partial curve, poor fit] | 
CCOC(=O)C1CCCN(c2nc(C)nc3c2oc2ccccc23)C1 (configuration not stated) |  | inactive: 11.4%
O=C(O)C1CCNCC1 | inconclusive [activator, single point] | 

Compound | Potency | activation
COc1cc(C2NC(=O)NC(O)(C(F)(F)F)C2C(=O)c2ccc(Cl)cc2)ccc1O (configuration not stated) | inconclusive [activator, single point] | 
COc1ccccc1NCCC(=O)OCC(=O)NCc1ccco1 | inconclusive [activator, partial curve] | 
CCO[C@H]1O[C@@H]([C@H](COCc2ccccc2)OCc2ccccc2)[C@@H](OCc2ccccc2)[C@H]1O |  | inactive: 1.02% [at 25.6 µM]
Cc1ccc(S(=O)(=O)Nc2ccc(O)c(C(=O)O)c2)c(C)c1 |  | inactive: -4.96%
CSC1=Nc2sc3c(c2C2=NCCN12)CCCC3 | inconclusive [activator, partial curve] | 
CCN1CCN(C(=O)c2nn(-c3ccc(C)cc3)c(=O)c3c2c2ccccc2n3C)CC1 | inconclusive [activator, partial curve] | 
O=C(CSc1nc(-c2ccco2)cc(C(F)(F)F)n1)N1CCc2ccccc2C1 | inconclusive [activator, partial curve] | 
O=C(O)c1cc(C(=O)C(=O)c2cc(C(=O)O)c(O)c3ccccc23)c2ccccc2c1O | inconclusive [activator, single point] | 
O=C(CCSc1nc(-c2ccco2)cc(C(F)(F)F)n1)N1CCCc2ccccc21 | inconclusive [activator, single point] | 
O=C(c1ccccc1-c1ccccc1)N1CCN(c2ccccn2)CC1 | inconclusive [activator, partial curve] | 
CCCCCCC1Cc2cc(OC)c(OC)cc2C(C(C(=O)OCC)C(=O)OCC)O1 (configuration not stated) |  | inactive: 16% [at 11.4 µM] and inactive: 5.86% [at 11.4 µM]
COc1ccc(-n2c(=O)c(-c3ccc(Cl)cc3)nc3cnc(N4CCOCC4)nc32)cc1 | inconclusive [activator, single point] | 
C=C(C)C1Cc2c(C)nn(-c3ccccc3)c2C1 (configuration not stated) | inconclusive [activator, partial curve] | 
N[C@@H]1C=CC=C(C(=O)O)C1 |  | inactive: -6.64%
CCCCn1c(SCC(=O)N2CC(C)CC(C)C2)nc2cc(S(N)(=O)=O)ccc21 (configuration not stated) | inconclusive [activator, full curve] | 
CCOc1ccc(C(=O)N2CCC(C(=O)c3ccc4c(c3)OCCO4)CC2)cc1 | inconclusive [activator, single point] | 
O=C(Nc1nc(-c2ccc3c(c2)OCO3)cs1)C1COc2ccccc2O1 (configuration not stated) | inconclusive [activator, single point] | 
Cc1ccc(Cn2c(=O)n(Cc3ccco3)c(=O)c3ccccc32)cc1 | inconclusive [activator, single point] | 
CCOc1ccc(N2CCCn3c2nc2c3c(=O)n(CCc3ccccc3)c(=O)n2C)cc1 | inconclusive [activator, partial curve] | 
CCOc1cc(N2CCOCC2)c(OCC)cc1NC1=NCCCCC1 | inconclusive [activator, partial curve] | 
Cc1ccc(N=Cc2nc(-c3ccco3)oc2O)cc1 |  | inactive: -20%
O=C(Nc1ccc(Br)cc1)C1CCCN1S(=O)(=O)c1cccs1 (configuration not stated) | inconclusive [activator, partial curve] | 
CCOC(=O)Cn1nnnc1C(CC)N(Cc1cccs1)Cc1cc2cc(C)ccc2[nH]c1=O (configuration not stated) | active: 3.98 µM | 
COCCCNC(=O)c1ccc(Cn2c(=O)[nH]c3ccccc3c2=O)cc1 |  | inactive: -1.49%

Compound | Potency | activation
CCC(C)(C(=O)NC1CCCC1)N(Cc1ccco1)C(=O)c1ccc2c(c1)OCO2 (configuration not stated) | active: 2.51 µM | 
O=c1cc(-c2ccccc2)nc2n1Cc1ccccc1-2 |  | inactive: 9.91%
CC(C(=O)N(C1CC1)C1(C(=O)Nc2ccccc2)CCCC1)N1C(=O)c2ccccc2C1=O (configuration not stated) | inconclusive [activator, partial curve] | 
NC(N)=NCCCC(=O)O |  | inactive: -0.742% [at 11.4 µM]
CCn1c(SCC(=O)N2CCN(c3ccccc3)CC2)nc2c(c1=O)SC(C)C2 (configuration not stated) | active: 25.1 µM | 
CCOC(=O)N1CC=C2C(C#N)=C(N)C(C#N)(C#N)[C@H](c3ccc(OCC)c(OCC)c3)[C@H]2C1 |  | inactive: 17.6%
OC[C@@H]1O[C@@H](n2cnc3c(N[C@@H]4C[C@@H]5CC[C@H]4C5)ncnc32)[C@@H](O)[C@H]1O |  | inactive: 17.8%
O=C(C[n+]1ccc2ccccc2c1)c1ccc2ccc3ccccc3c2c1 |  | inactive: 0.272% [at 11.4 µM]
O=C(c1noc2c1CCc1ccccc1-2)N1CCc2ccccc2C1 | inconclusive [activator, single point] | 
COc1ccc(CNc2cc(-c3cccc(NS(C)(=O)=O)c3)ncn2)c(OC)c1 |  | inactive: 2.81%
O=C(CSc1nnc(Cc2cccs2)n1Cc1ccco1)Nc1ccc(Cl)cc1Cl | inconclusive [activator, full curve] | 
CC12CCC(=O)N1C(C(=O)O)Cc1c2[nH]c2ccccc12 (configuration not stated) | inconclusive [activator, single point] | 
CC1CC=C2C(C#N)=C(N)C(C#N)(C#N)C(c3cccs3)C2C1 (configuration not stated) |  | inactive: 5.34%
COC(=O)C/C=C\[C@@H](C)[C@@H](/C=N\O[C@@H](C)CN1CCCCc2nc(C)c(C)cc21)OC | inconclusive [activator, partial curve] | 
CC1(C)Cc2ccccc2-c2nc3ccccc3c(=O)n21 | inconclusive [activator, single point] | 
Cc1cc(C)c2cc(C#N)c(N3CCCC3)nc2c1 | inconclusive [activator, full curve, poor fit] | 
COc1ccccc1N1CCN(CC(=O)c2c(C)[nH]c3ccccc23)CC1 | inconclusive [activator, single point] | 
Cc1ccc(C)n1-n1cnc2sc(-c3ccccc3)cc2c1=O |  | inactive: 15.7%
CSc1nc2nc(-c3ccccc3)cc(C(F)(F)F)n2n1 |  | inactive: 2.78%
CCc1ccc(CCC(=O)O)nc1 |  | inactive: 14.9% [at 11.4 µM]
Cc1cccc(C)c1NC(=O)Cn1cnc2c(=O)n(C)c(=O)n(C)c21 |  | inactive: 1.77%
Cc1cc(C(=O)N[C@H](c2ccccc2)[C@@]2(C)C[C@@H]2[C@@H](C)C(=O)Nc2ccc3ccccc3c2)no1 | active: 1.58 µM | 
CC(C)=CCC(C)(C)C1OCCN1C(=O)Nc1ccccc1 (configuration not stated) |  | inactive: 24.1%
CCOC(=O)[C@]1(C(NC(=O)OC)c2cccc(C)c2)CCCC1=O (some centres not stated) |  | inactive: 4.95% [at 11.4 µM]
